In all, about 3,600 compounds were measured (“viability index relative to DMSO control”: median about 0.81, lowest 2% from about 0.13 on). This is one part of the list.
system: Plasmodium falciparum NF54 stage V gametocytes; experiment: viability index relative to DMSO control (fraction); higher = less gametocyte killing; conditions: 1.25 µM, incubation time: 72 h
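Also: 384-well serum-free SaLSSA: MitoTracker Red CMXRos staining with saponin lysis, high-content imaging, treated-well particle count divided by plate-mean count of DMSO wells.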

Row | Compound | viability index
1 | CCCOC(=O)C1=C(C)NC2=C(C(=O)CC(c3ccc(OC)c(OC)c3)C2)C1c1cccc(C)c1 (centres undefined) | 0.61
2 | Cn1cc([N+](=O)[O-])c(C(=O)NN=Cc2c[nH]c3ccccc23)n1 | 1.14
3 | Oc1ccc(-c2ccccc2)cc1CN1CCCCCC1 | 0.264
4 | COc1cccc(NC(=O)c2sc3ncn(CC(=O)N4CCN(c5ccccn5)CC4)c(=O)c3c2C)c1 | 0.967
5 | CC(=NNC(=O)C(=Cc1ccc([N+](=O)[O-])cc1)NC(=O)c1ccccc1)c1ccccn1 | 0.661
6 | COc1ccc(C2SCCN2S(=O)(=O)c2cccc([N+](=O)[O-])c2)cc1OC (centres undefined) | 1.29
7 | COc1ccc(OC)c(C2CC(=O)C3=C(C2)NC(=O)CC3c2ccc(OC)c(OC)c2)c1 (centres undefined) | 0.747
8 | COc1ccc(OC)c(-c2ccc(O)c(CNCC3CC4C=CC3C43CC3)c2)c1 (centres undefined) | 0.317
9 | COc1ccc(Nc2nc(-c3cc4cc(OC)ccc4oc3=O)cs2)c(OC)c1 | 0.924
10 | Cc1cc(C(=O)N2CCOc3c(cc(-c4csc5ccccc45)cc3OCCc3ccccn3)C2)n(C)n1 | 0.365
11 | O=C(O)CSC(C(=O)Nc1ccc(Cl)cc1)c1ccccc1 (centres undefined) | 0.865
12 | CCc1nc2nc(C)cc(Nc3ccc(F)c(Cl)c3)n2n1 | 1.11
13 | CC[n+]1ccc(C=Cc2ccc(N(C)C)cc2)cc1 | 1.03
14 | CCOC(=O)c1ccc(-c2c(-c3cc(CC)c(OC)cc3O)noc2C)o1 | 0.857
15 | O=C(C1CC1)N1CCOc2c(cc(-c3csc4ccccc34)cc2OCCc2ccccn2)C1 | 0.423
16 | CSc1cccc(NC(=O)C2C3C=CC4(O3)C2C(=O)N(Cc2ccc(F)cc2)C4C(=O)NC2CCCC(C)C2C)c1 (centres undefined) | 1.22
17 | Cc1cc(C)cc(NC(=S)NNc2ccnc3cc(Cl)ccc23)c1 | 0.614
18 | Oc1c2c(nc3cc(-c4ccccc4)nn13)CCCC2 | 0.71
19 | O=C(Nc1ccccc1[N+](=O)[O-])C1CC1(c1ccccc1)c1ccccc1 (centres undefined) | 1.09
20 | CCCOC(=O)C1=C(C)NC2=C(C(=O)CC(c3ccc(OC)cc3)C2)C1c1cccc(Cl)c1Cl (centres undefined) | 0.679
21 | O=C(Nc1ccc(Cl)cc1)c1c2c(nc3ccccc13)-c1ccccc1CC2 | 0.522
22 | Cc1cc(C=C2Sc3ccccc3N2C)[n+](C)c2ccccc12 | 0.606
23 | CNC(=O)[C@@H]1C[C@@H](NCc2ccc(OC)cc2)CN1Cc1ccccc1 | 1.15
24 | COc1ccc(C=C2SC(=N)N(c3ccc4c(c3)OCO4)C2=O)cc1OC | 0.74

Reference: the supplement of paper PMC4723716
